The assay relates to hiPSC-ECs. Description: TNF-α ELISA of hiPSC-EC culture medium. It counts as cell-based, human. As to conditions: 0.5 or 5 μM Δ^9-THC, 48 hours. Background: An ELISA detects its analyte on a solid surface through an enzyme-linked reagent.

Here are results for 1 compound from patent US20240358672A1, “APPLICATION OF GENISTEIN AND ITS PHOSPHATE ESTER DERIVATIVE AND PHARMACEUTICAL COMPOSITION COMPRISING THE SAME” (National Taiwan University, priority 2023, published 2024).

SMILES strings stand for the structures.

Take `CCCCCc1cc(O)c2c(c1)OC(C)(C)[C@@H]1CCC(C)=C[C@@H]21` [Δ^9-THC, Δ^9-tetrahydrocannabinol]: the “TNF-α concentration in the cell culture medium” value was “increased”.
